From the supplement of paper PMC12217912
This is one part of the list. Sequences were assembled here from the parent chain. Inactive controls read about 0.05.

B1: TEV protease; numbered along this chain (parent)
chain: MGESLFKGPRDYNPISSSICHLTNESDGHTTSLYGIGFGPFIITNKHLFRRNNGTLVVQSLHGVFKVKDTTTLQQHLVDGRDMIIIRMPKDFPPFPQKLKFREPQREERICLVTTNFQTKSMSSMVSDTSCTFPSGDGIFWKHWIQTKDGQCGSPLVSTRDGFIVGIHSASNFTNTNNYFTSVPKNFMELLTNQEAQQWVSGWRLNADSVLWGGHKVFMVKPEEPFQPVKEATQL

Variants of: B1
Test: raw area under fraction-flipped curve 0-4 h after induction (AUC4h, not background-subtracted), DNA-recorder readout of cleavage of the substrate (dimensionless); higher = more cleavage of the substrate by the protease variant
Conditions: temperature: 34 °C; time window: 0-4 h after rhamnose induction
Procedure: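 In vivo DNA recorder in E. coli TOP10(DE3) ΔrhaA at 34 °C. Each TEVp single-site mutant (parent TEVp 0) is paired with a single-site variant of the 7-mer TEVs (canonical ENLYFQ|S). The substrate sits between flexible linkers in a Bxb1-sfGFP-TEVs-SsrA fusion, so cleavage stabilises Bxb1 and speeds flipping of a recombination array, read by NGS. The value is the raw area under the fraction-flipped curve over 0-4 h after rhamnose induction (AUC4h), with ≥20 reads per time point. It is not background-subtracted; inactive controls average about 0.047.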
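Further: Bxb1 expression induced with 0.2% (w/v) L-rhamnose at OD600 near 0.5, cultures sampled hourly, flipped fraction per protease–substrate barcode pair counted by paired-end Illumina sequencing.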

Variant	area with substrate ENLYAQS	area with substrate ENLYIQS	area with substrate ENLYKQS	area with substrate ENLYMQS	area with substrate ENLYQQS	area with substrate ENLYRQS	area with substrate ENLYTQS	area with substrate ENLYWQS	area with substrate ENLYYQS	area with substrate ENLYDQS	area with substrate ENLYEQS	area with substrate ENLYGQS	area with substrate ENLYHQS	area with substrate ENLYNQS	area with substrate ENLYPQS	area with substrate ENLYCQS	area with substrate ENLYVQS	area with substrate ENLYSQS	area with substrate ENLYLQS
D79I	0.0823	0.0977	0.03	0.0787	0.0473	0.0567	0.0633	0.0637	0.0553	–	–	–	–	–	–	–	–	–	–
K100S	0.0675	0.0738	0.0567	0.096	0.0312	0.0594	0.09	0.0671	0.0528	0.0576	0.0643	0.0998	0.0623	0.0541	0.0676	–	–	–	–
S127A	0.0849	0.115	0.0603	0.089	0.0663	0.0562	0.0898	0.042	0.0893	–	0.0658	0.0696	0.0752	0.0588	0.0652	0.0874	0.144	–	–
D69I	0.0682	0.0822	0.0269	–	–	0.0615	–	0.0571	0.0502	0.0503	–	0.0598	0.0696	–	–	–	0.0613	0.0584	–
S17M	0.0854	0.138	0.0619	0.0876	0.058	0.0624	0.0993	–	0.0848	0.0887	0.0696	0.0616	0.0766	0.0622	0.0625	–	0.116	0.073	0.104
F38L	0.0666	0.127	0.0683	0.0717	0.0591	0.0561	0.068	0.0758	0.0588	0.0617	0.0616	0.0662	0.06	0.0623	0.0653	0.0793	0.126	0.0674	–
S17L	0.0644	0.0817	0.0563	0.0906	0.0756	–	–	0.0869	0.0636	0.0571	0.0662	0.0666	0.0671	0.0565	0.0623	0.0693	0.136	0.0652	0.0745
K7Q	0.0679	0.117	0.0594	0.071	0.081	0.06	0.0799	0.0873	0.0631	0.0757	0.0826	0.0787	0.0443	0.0688	–	0.0732	–	–	–
E107K	0.0951	0.0798	0.0749	–	0.0588	0.0766	0.074	0.0722	–	–	0.0625	0.0699	0.0746	0.0612	0.0946	–	–	0.0535	0.0722
Q74E	0.0735	0.13	–	–	0.0759	0.0654	–	0.0822	0.0605	0.0744	0.0769	–	0.0695	0.0722	0.0614	–	–	0.0709	0.0917
G166P	0.0596	–	–	–	0.0467	0.0543	0.0462	0.0462	–	0.0518	0.0463	0.0434	0.0446	0.0502	0.0483	–	0.0434	–	–
T30G	0.0841	0.124	0.0478	0.0684	0.0566	–	0.0739	0.0889	0.0667	0.0671	0.0632	0.0558	0.0576	–	0.0692	–	0.113	0.0572	–
C20G	0.0512	–	–	–	–	–	–	0.0474	–	–	–	–	–	–	–	–	–	–	–
I42N	0.0428	0.0536	0.048	0.0412	0.0468	–	–	0.0481	–	0.0423	0.0537	0.0556	0.0317	0.0445	0.0369	0.0277	–	0.0198	–
E108V	0.0886	–	0.0562	0.0547	–	0.0593	0.0571	0.056	–	0.0614	0.0576	0.0655	0.06	0.0552	0.0527	0.0598	0.0781	0.058	–
S135Y	0.061	0.0648	0.0657	–	–	0.0615	0.0539	0.0477	–	0.0622	0.0708	0.0569	0.058	–	0.0647	0.0758	–	0.0556	0.0596
E107M	0.0607	–	0.0536	0.0673	0.0598	–	0.0664	0.0811	0.0593	0.0583	0.068	–	0.069	0.0783	0.062	–	0.103	0.0681	–
N186W	0.0673	0.119	0.0115	0.0964	–	0.0523	0.0768	0.0618	–	0.063	0.05	0.067	0.047	0.0618	0.0718	0.055	0.105	–	–
F38M	0.0654	0.121	0.0541	0.076	0.062	0.0338	–	0.087	0.0549	0.0577	0.0652	–	0.0524	0.0577	0.0563	–	0.122	0.0551	–
G63D	0.0549	0.111	0.0347	0.082	–	0.0782	0.0939	0.0678	–	0.0592	0.0598	–	0.0482	0.0676	–	0.0844	0.108	–	0.0642
I15A	0.0697	0.102	0.069	–	0.0437	0.058	–	0.0609	0.0557	0.0462	0.0609	–	0.0666	0.0643	0.07	–	0.106	0.08	–
W203E	0.066	0.0641	–	–	0.0743	0.0666	–	0.0571	–	0.0584	0.0493	0.0529	0.0663	0.0699	0.0632	–	0.0759	0.0689	–
E25Q	0.0711	–	0.0219	0.0745	0.0722	0.0556	–	0.0728	0.0695	0.0622	0.068	0.066	–	0.0758	0.0644	–	0.105	–	0.0833
E103W	0.0628	0.0863	0.0482	0.0594	0.0658	0.0561	0.0794	0.057	0.0709	0.0517	0.0604	0.0625	0.0615	0.0708	0.0705	0.0791	0.0848	0.0739	0.0748
G2E	0.066	0.108	0.0739	0.0852	–	0.044	–	0.0618	–	–	0.0553	0.0696	0.076	0.0716	0.081	0.0729	0.105	0.0609	–
